Measured values as given in PubChem BioAssay AID1240 (Sanford-Burnham Center for Chemical Genomics, 2008).
In all, about 50,000 compounds went through this assay and about 800 (1.6%) showed an effect of 50% or more. The list shows a part of the results.

molecular target: Bcl-2-like protein 10 (Homo sapiens) (UniProt Q9HD36); test: Phenotype converters, Bcl-B/TR3 peptide binding displacement, primary biochemical FP (AID 1240); conditions: GST-Bcl-B / FITC-TR3 peptide fluorescence polarization; stronger effect = higher value; compound at 3.75 mg/L;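 also: 0% = Bcl-B with tracer peptide and DMSO and 100% = tracer peptide lacking Bcl-B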
UniProt Q9HD36, sequence (Q9HD36 whole entry, looked up): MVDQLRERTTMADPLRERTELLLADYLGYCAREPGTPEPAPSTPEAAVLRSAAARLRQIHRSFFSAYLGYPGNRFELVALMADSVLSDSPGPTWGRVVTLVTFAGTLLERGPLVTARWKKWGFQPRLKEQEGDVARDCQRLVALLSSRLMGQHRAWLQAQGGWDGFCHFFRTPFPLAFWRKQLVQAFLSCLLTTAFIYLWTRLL

Structure (SMILES) | displacement
Brc1ccccc1OCCCCN1CCCC1 | 10%
CC1=CC(C)(C)Nc2ccc(OC(=O)COc3ccc4ccccc4c3)cc21 | 7.5%
CCOCCOC(=O)C1=C(C)NC2=C(C(=O)CCC2)C1c1cccc(F)c1 (stereo unspecified) | 15.8%
CCc1c(C)sc(NC(=O)C2CCCO2)c1C(N)=O (stereo unspecified) | 20%
CCOC(=O)C(CC)Sc1n[nH]c(=O)[nH]c1=O (stereo unspecified) | 5.9%
Cc1ccc(S(=O)(=O)N2CCC(C(=O)O)CC2)c2nsnc12 | -2.2%
Cc1c(NC(=O)c2cccnc2)cccc1NC(=O)c1cccnc1 | 9.8%
Cc1ccc2c(c1)N(C(=O)COc1nc3ccccc3s1)C(C)(C)c1ssc(=S)c1-2 | -4.1%
O=C1C2CCCCC2C(=O)N1CC(=O)N1c2ccccc2Sc2ccc(C(F)(F)F)cc21 (stereo unspecified) | -14.3%
O=C(Nc1ccc2oc(-c3cccnc3)nc2c1)c1cccc(OCc2ccccc2)c1 | 11%
O=C(Nc1ccc(Cl)cn1)c1ccc(-c2ccc([N+](=O)[O-])cc2)o1 | 13.9%
COc1ccc(NC(=O)c2cccc([N+](=O)[O-])c2C)cc1Cl | -2.7%
O=C(NCc1ccc2c(c1)OCO2)C1CCCC1 | -9.7%
CCC(C(=O)Nc1sc2c(c1C(=O)OC)CCC(C)C2)c1ccccc1 (stereo unspecified) | 7.2%
CCOC(=O)Nc1nc(C)c(C(C)=O)s1 | -1.5%
COC(=O)c1c(C)oc2ccc(OS(C)(=O)=O)cc12 | 11.7%
CCOCCOC(=O)c1ccc(NC(=O)c2cccc(C)c2)cc1 | -12.6%
N/C(=N\S(=O)(=O)c1ccc(Cl)cc1)c1ccc(F)cc1 | 8.3%
CCN(CC)c1ccc(/C=C2N=C(/C=C/c3ccccc3)OC/2=O)cc1 | -28%
COc1ccc(/C=N/Nc2cc(N3CCOCC3)ncn2)cc1 | -0.6%
FC(F)(F)c1cccc(NC(=S)NCc2ccc(Cl)cc2)c1 | -5.2%
O=C(COc1ccccc1[N+](=O)[O-])Nc1ccc2oc(-c3cccc4ccccc34)nc2c1 | 56.9%
CCOc1ccc(C(=O)Nc2ccc(C)cc2[N+](=O)[O-])cc1Br | 35.7%
O=C(N/C(=C/c1cccnc1)C(=O)N1CCCCCC1)c1cccc(Br)c1 | -8.9%

Structure (SMILES) | displacement
O/N=C/c1ccc(OCC(O)Cn2c3ccccc3c3ccccc32)cc1 (stereo unspecified) | 17.4%
CCc1cccc(C)c1NS(=O)(=O)c1ccccc1 | 15.5%
Cc1cc([N+](=O)[O-])ccc1NCc1cc(F)ccc1F | 7.1%
Cc1ccc(Oc2nc(-c3ccncc3)nc3ccccc23)cc1 | -5%
Cc1c(NC(=O)c2cccc3c2C(=O)c2ccccc2-3)c(=O)n(-c2ccccc2)n1C | 2.1%
COc1cc(C2NC(=O)N(C)C(C)=C2C(=O)OC2CCCC2)cc(Br)c1O (stereo unspecified) | 7.7%
COc1ccc(N2C(=O)CC(NCCCc3ccccc3)C2=O)cc1 (stereo unspecified) | -4.8%
S=C(NCCN1CCOCC1)Nc1cccc(Cl)c1 | -6.7%
Cc1ccc(N(CC(=O)NCC(C)C)S(=O)(=O)c2ccc(F)cc2)cc1 | -9.3%
CCOC(=O)c1ccc(-c2ccc(/C=C3/C(=O)NN(c4cccc(Cl)c4)C3=O)o2)cc1 | -1.9%
Cc1cccc(CC2S/C(=N\N=C\c3ccc(O)cc3)NC2=O)c1 (stereo unspecified) | -15.4%
CC(=O)Oc1ccccc1N1C(=O)c2cccc([N+](=O)[O-])c2C1=O | 2.1%
O=C(Nc1cccc(Cl)c1Cl)c1cc2nc(-c3ccc([N+](=O)[O-])cc3)cc(C(F)(F)F)n2n1 | 14.6%
Cc1ccc(CN2CCN(N=Cc3cccc(Cl)c3)CC2)c(C)c1 | 10.3%
CN1CCN(Cn2c(O)c(N=NC(=O)CO/N=C/c3ccccc3Cl)c3ccccc32)CC1 | -9.3%
O=[N+]([O-])c1cccc(Cl)c1N1CCN(CCO)CC1 | 89.3%
CCOc1cc(/C=C2/N=C(c3ccc(NC(C)=O)cc3)OC2=O)ccc1OCc1ccccc1 | -1.3%
Cc1ccc(Cl)cc1N(Cc1ccc(C(=O)NN=C2CCN(C)CC2)cc1)S(=O)(=O)c1ccccc1 | -24.8%
COc1cc(NC(=O)c2cc(I)ccc2Cl)ccc1NC(=O)c1ccco1 | -5.6%
S=C(c1ccc(-c2ccc(Br)cc2)o1)N1CCCCC1 | -3.2%
CCC(=O)c1ccc(N2CCN(C(=O)c3ccccc3F)CC2)c(F)c1 | -15.1%
CC(NC(=O)c1ccc(I)cc1)c1ccccc1 (stereo unspecified) | -11%
CCCCn1c(NC(=O)c2ccc(Cl)cc2)nc2ccccc21 | 13.6%
C=CCOc1c(Br)cc(/C=C/C(=O)O)cc1OC | -8%

Structure (SMILES) | displacement
O=C(Nc1ccc(Br)cn1)c1cccc(F)c1 | -1.8%
Cn1c(/N=C/c2ccc3c(c2)OCO3)nc2ccccc21 | 2.7%
O=C(NC1CCS(=O)(=O)C1)/C(=C\c1ccccc1)NC(=O)c1ccc([N+](=O)[O-])cc1 (stereo unspecified) | -2.7%
COc1ccc(CN2CCN(C(=O)c3ccco3)CC2)cc1Br | -11.3%
CN(Cc1ccccc1)Cn1[nH]c(=O)ccc1=O | 14.7%
COc1ccc(/C=C/C(=O)Nc2scc(-c3ccc(Br)cc3)c2C(=O)O)cc1 | -6%
Cn1cccc1CN1CCN(C(=O)c2cccc(Cl)c2)CC1 | -2.2%
Cc1ccc(NC(=O)CN(c2ccccc2)S(=O)(=O)c2ccccc2[N+](=O)[O-])cc1C | 9.8%
COC(=O)c1ccc(CSc2nc3ccccc3s2)cc1 | 9.5%
Cc1ccc(-c2noc(-c3ccc(Cl)cc3Cl)n2)cc1 | 21.7%
CCOC(=O)C(C#N)=C1CCCCCC1 | 23.8%
C(=NC1=NN(c2ccccc2)CC1)N1CCOCC1 | 7%
NC1=NC(=O)C(Cc2cccc(C(F)(F)F)c2)S1 (stereo unspecified) | -1.4%
CSc1nc2ccc(NC(=O)c3ccc(Br)cc3F)cc2s1 | -14.2%
C=CCN(CC=C)CC(O)CN1C(=O)NC(C)(C)C1=O (stereo unspecified) | 4.3%
COc1ccc(OCC(=O)Nc2ccc(-c3nc4ccc(C)cc4s3)cc2)cc1 | -9.7%
CCC(=O)c1ccc(OC(=O)c2cccc(C)c2)cc1 | 1.3%
Cc1ccc(C)n1Cc1ccc(C(=O)O)cc1 | 66.4%
O=C(Nc1cccnc1)c1cccc(C(=O)Nc2cccnc2)n1 | -7.2%
O=C(O)COc1ccc(Br)cc1/C=N/NC(=O)/C(=C/c1ccccc1)NC(=O)c1ccccc1 | -0.9%
Cc1ccc(N2CCN(/N=C\c3ccccc3OCC(=O)O)CC2)cc1 | -5.3%
Cc1cc(Cl)ccc1OC(C)C(=O)Nc1cccc(Cl)c1 (stereo unspecified) | 2.6%
Cc1cc(Cl)ccc1OCCCC(=O)Nc1cccc(Br)c1 | -1.9%
